The text below walks through data of patent US6583155B2, “Method for treating allergies using substituted pyrazoles” (priority 2000, dated 2003).

Molecules are shown by their SMILES.

This experiment deals with Recombinant human cathepsin S (CatS) (Homo sapiens, UniProt P25774). In words: biochemical.

By IC50 is commonly meant the concentration needed to halve the response being measured.

For the molecule `Cn1c(=O)n(C2CCN(C[C@H](O)Cn3nc(-c4ccc(C(F)(F)F)cc4)c4c3CCN(S(C)(=O)=O)C4)CC2)c2cc(Cl)ccc21` (stereo in doubt) [Example 39, 5-Chloro-3-(1-{2-hydroxy-3-[5-methanesulfonyl-3-(4-trifluoromethyl-phenyl)-4,5,6,7-tetrahydro-pyrazolo[4,3-c]pyridin-1-yl]-propyl}-piperidin-4-yl)-1-methyl-1,3-dihydro-benzoimidazol-2-one], the IC50 came out at 40 nM.
The result for `CC(=O)N1CCc2c(c(-c3ccc(C(F)(F)F)cc3)nn2CC(O)CN2CCC(n3c(=O)n(CCN4CCOCC4)c4ccccc43)CC2)C1` (stereo not shown) [Example 7, 1-(1-{3-[5-Acetyl-3-(4-trifluoromethyl-phenyl)-4,5,6,7-tetrahydro-pyrazolo[4,3-c]pyridin-1-yl]-2-hydroxy-propyl}-piperidin-4-yl)-3-(2-morpholin-4-yl-ethyl)-1,3-dihydro-benzoimidazol-2-one] reads 260 nM.
In the case of `Cc1ccc2c(c1)n(C1CCN(CC(O)Cn3nc(-c4ccc(C(F)(F)F)cc4)c4c3CCN(S(C)(=O)=O)C4)CC1)c(=O)n2C` (stereo not shown) [Example 41, 3-(1-{2-Hydroxy-3-[5-methanesulfonyl-3-(4-trifluoromethyl-phenyl)-4,5,6,7-tetrahydro-pyrazolo[4,3-c]pyridin-1-yl]-propyl}-piperidin-4-yl)-1,5-dimethyl-1,3-dihydro-benzoimidazol-2-one], the half-inhibitory concentration (IC50) worked out at 30 nM.
Regarding `CC(=O)N1CCc2c(c(-c3ccc(Cl)c(C)c3)nn2CC(O)CN2CCC(c3nc(-c4ccc(Cl)cc4)no3)CC2)C1` (stereo not shown) [Example 12, 1-[3-(4-Chloro-3-methyl-phenyl)-1-(3-{4-[3-(4-chloro-phenyl)-[1,2,4]oxadiazol-5-yl]-piperidin-1-yl}-2-hydroxy-propyl)-1,4,6,7-tetrahydro-pyrazolo[4,3-c]pyridin-5-yl]-ethanone], the IC50 turned out to be 620 nM.
Regarding `CS(=O)(=O)N1CCc2c(c(-c3ccc(C(F)(F)F)cc3)nn2CC(O)CN2CCC(n3ccc4ccc(Cl)cc43)CC2)C1` (stereo not shown) [Example 25, 1-[4-(6-Chloro-indol-1-yl)-piperidin-1-yl]-3-[5-methanesulfonyl-3-(4-trifluoromethyl-phenyl)-4,5,6,7-tetrahydro-pyrazolo[4,3-c]pyridin-1-yl]-propan-2-ol], the concentration for half-maximal inhibition (IC50) is 230 nM.
The result for `Cn1c(=O)n(C2CCN(CCCn3nc(-c4ccc(Cl)c(Cl)c4)c4c3CCN(C(N)=O)C4)CC2)c2cc(Cl)ccc21` [Example 40, 1-{3-[4-(6-Chloro-3-methyl-2-oxo-2,3-dihydro-benzoimidazol-1-yl)-piperidin-1-yl]-propyl}-3-(3,4-dichloro-phenyl)-1,4,6,7-tetrahydro-pyrazolo[4,3-c]pyridine-5-carboxylic Acid Amide] reads 40 nM; that for `Cn1c(=O)n(C2CCN(CC(O)Cn3cc(-c4ccncc4)c(-c4ccc(C(F)(F)F)cc4)n3)CC2)c2cc(Cl)ccc21` (stereo not shown) [Example 28, 5-Chloro-3-(1-{2-hydroxy-3-[4-pyridin-4-yl-3-(4-trifluoromethyl-phenyl)-pyrazol-1-yl]-propyl}-piperidin-4-yl)-1-methyl-1,3-dihydro-benzoimidazol-2-one], 890 nM; that for `CS(=O)(=O)N1CCc2c(c(-c3ccc(Br)cc3)nn2CC(O)CN2CCC(n3c(=O)[nH]c4ccc(Cl)cc43)CC2)C1` (stereo not shown) [Example 8, 1-(1-{3-[3-(4-Bromo-phenyl)-5-methanesulfonyl-4,5,6,7-tetrahydro-pyrazolo[4,3-c]pyridin-1-yl]-2-hydroxy-propyl}-piperidin-4-yl)-6-chloro-1,3-dihydro-benzoimidazol-2-one], 40 nM.
With `CC(=O)N1CCc2c(c(-c3ccc(Cl)cc3)nn2CC(O)CN2CCC(Nc3ccccc3C#N)CC2)C1` (stereo not shown) [Example 1, 2-(1-{3-[5-Acetyl-3-(4-chloro-phenyl)-4,5,6,7-tetrahydro-pyrazolo[4,3-c]pyridin-1-yl]-2-hydroxy-propyl}-piperidin-4-ylamino)-benzonitrile] the figure was 730 nM; with `CS(=O)(=O)N1CCc2c(c(-c3ccc(C(F)(F)F)cc3)nn2CCCN2CCC(n3c(=O)[nH]c4ccc(Cl)cc43)CC2)C1` [Example 35, 6-Chloro-1-(1-{3-[5-methanesulfonyl-3-(4-trifluoromethyl-phenyl)-4,5,6,7-tetrahydro-pyrazolo[4,3-c]pyridin-1-yl]-propyl}-piperidin-4-yl)-1,3-dihydro-benzoimidazol-2-one], 30 nM; with `CS(=O)(=O)N1CCc2c(c(-c3ccc(C(F)(F)F)cc3)nn2CC(O)CN2CCC(n3c(=O)n(CC#N)c4ccccc43)CC2)C1` (stereo not shown) [Example 37, [3-(1-{2-Hydroxy-3-[5-methanesulfonyl-3-(4-trifluoromethyl-phenyl)-4,5,6,7-tetrahydro-pyrazolo[4,3-c]pyridin-1-yl]-propyl}-piperidin-4-yl)-2-oxo-2,3-dihydro-benzoimidazol-1-yl]-acetonitrile], 50 nM.
With `CC(=O)N1CCc2c(c(-c3ccc(C(F)(F)F)cc3)nn2CC(O)CN2CCC(c3nc4cc(Cl)ccc4o3)CC2)C1` (stereo not shown) [Example 15, 1-[1-{3-[4-(5-Chloro-benzooxazol-2-yl)-piperidin-1-yl]-2-hydroxy-propyl}-3-(4-trifluoromethyl-phenyl)-1,4,6,7-tetrahydro-pyrazolo[4,3-c]pyridin-5-yl]-ethanone] the figure was 230 nM; with `COc1ccc2[nH]c(=O)n(C3CCN(CC(O)Cn4nc(-c5ccc(Br)cc5)c5c4CCN(S(C)(=O)=O)C5)CC3)c2n1` (stereo not shown) [Example 43, 3-(1-{3-[3-(4-Bromo-phenyl)-5-methanesulfonyl-4,5,6,7-tetrahydro-pyrazolo[4,3-c]pyridin-1-yl]-2-hydroxy-propyl}-piperidin-4-yl)-5-methoxy-1,3-dihydro-imidazo[4,5-b]pyridin-2-one], 20 nM.
